The source gives no read counts; variants with many changes may rest on few reads.
B1: LINE1-full (parent)
chain: UACGUAGGUGGUUUUCCCCUGAUAGUGCUAAGGGGGCCUGGAAGUUUGGACUGGGCAGAGCUCAACACAGCGUGGCAAAGUGGCUGUGGCUAGACUGCCUCUCUGGAUUCCUCGUCACUCAGCAGGGCAUCUCUGAGAGAAAUGCC

Variants of: B1
Assay: self-cleavage, relative activity (ratio to wild type); higher = more cleavage; in vitro, sequencing; the parent is a self-cleaving ribozyme

Variant | self-cleavage
UACGUAGGUGGUUUUCCCCUGAUAGUGCCAAGGGGGCCUGGAAGUUUGGACUGGGCAGUGCUCAACACAGCAUGGCGAAGUGGCUGUGGCUAGACUGCCUCUCUGGGUUCCUCGUCACUCAGCAGGGCAUCUCUGAGAGAAAUGCC [U29C A59U G72A A77G A107G] | 1.97
UACGUAGGUGGUUUUCCCCUGAUAGUGCCGAGGGGGCCUGGGAGUUUGGACUGGGCAGAACUCAACACAGCGUGGCAAAGUGGCUGUGGCUAGACUGCCUCUCUGGAUUCCUCGUCGCUCAGCAGGGCGUCUCUGAGAGAAAUGCC [U29C A30G A42G G60A A117G A129G] | 0
UACGUAGGUGGUUUUCCCCUGAUAGUGCCAAGGGGGCCUGGAAGUUUGGGCUGGGCAGAGCUCAACACAGCGUGGCAAAGUGGCUGUGGUUAGACUGCCUCUCUGGAUUCCUCGUCACUCAGCAGGGCAUCUCUGAGAGAAAUGCC [U29C A50G C90U] | 0.08
UACGUAGGUGGUUUUCCCCUGAUAGUGCCGAGGGGGCCUGGAAGUUUGGACUGGGCAGAGCUCAACACAGCGUGGCAAAGUGGCUGUGGCUAGACUGCCUCUCUGGAUUCCUCGUCACUCAGCAGGGCUUCUCAGAGAGAAAUGCC [U29C A30G A129U U134A] | 1.11
UACGUAGGUGGUUUUCCCCUGAUAGUGCCAAGGGGGCCUGGAAGUUUGGACUGGGCAGUGCUCAACACAGCGUGGCAAAGUGGCAGUGGCUAGACUGCCUCUCUGGAUUCCUCGUCACUCAGCAGGGCAUCUCUGAGAGAAAUGCC [U29C A59U U85A] | 0.12
UACGUAGGUGGUUUUCCCCUGAUAGUGCCAAGGGGGCCUGGAAGUUUGGACUGGGCAGAGCUCAGCACAGCGUGGCAAAGUGGCUGUGGCUAGACUGCUUCUCUGGAUUCCUCGUCACUCAGCAAGGCAUCUCUGAGAGAAAUGCC [U29C A65G C99U G125A] | 0.06
UACGUAGGUGGUUUUCCCCUGAUAGUGCCAAGGGGGCCUGGAAGUUUGGACUGGGCAGAGCUCGACACAGCGUGGCAAAGUGGCUGUGGCUAGACUGCCUCUCUGGGUUCCUCGUCACUCAGCAGGGCAUCUCUGAGAGAAAUGCC [U29C A64G A107G] | 1.93
UACGUAGGUGGUUUUCCCCUGAUAGUGCCGAGGGGGCCUGGAAGUUUGGACUGGGCAGAGCUCAACACAGCGUGGCUAAGUGGCUGUGGCUAGACUGCCUCUCUGGAUUCCUCGUCACUCAGCAGGGCAUCUCUGAGAGAAAUGCC [U29C A30G A77U] | 0.87
UACGUAGGUGGUUUUCCCCUGAUAGUGCCGAGGGGGCCUGGAAGUUUGGACUGGGCAGUGCUCAACACAGCGUGGCGAAGUGGCUGUGGCUAGACUGCCUCUCUGGAUUCCUCGUCACUCAGCAGGGCAUCUCUGAGAGAAAUGCC [U29C A30G A59U A77G] | 1.84
UACGUAGGUGGUUUUCCCCUGAUAGUGCCAAGGGGGCCUGGAAGUUUGGACUGGGCAGGGCUCAACACAGCGUGGCAAAGUGGCUGUGGCUAGACAGCCUCUCUGGAUUCCUCGUCACUCAGCAGGGCAUCUCUGAGAGAAAUGCC [U29C A59G U96A] | 0.21
UACGUAGGUGGUUUUCCCCUGAUAGUGCCAAGGGGGCCUGGAGGUUUGGACUGGGCAGAGCUCAACACAGCGUGGCAAAGUGGCUGUAGCUAGACUGCCUCUCUGGAUUCCUCGUCACUCAGCAGGGCAUCUCUGAGUGAAGUGCC [U29C A43G G88A A138U A142G] | 0.08
UACGUAGGUGGUUUUCCCCUGAUAGUGCCAAGGGGGCCUGGAAGUUUGGGCUGGGCAGAGCUCAACACAGCGUGGCAAAGUGGCUGUGGCUAGACUGCCUCUCUGGAUUCCUCGUCACUCAGCAGGGCACCUCUGAGAGAAAUGCC [U29C A50G U130C] | 1.41
UACGUAGGUGGUUUUCCCCUGAUAGUGCCAUGGGGGCCUGGAAGUUUGGACUGGGCAGAGCUCAACACAGCGUGGCAAAGUGGCUGUGGCUAGACUGCCACUCUGGAUUCCUCGUCACUCAGCAGGGCAUCUCUGAGAGAGAUGCC [U29C A31U U100A A141G] | 0.69
UACGUAGGUGGUUUUCCCCUGAUAGUGCCUAGGGGGCCUGGAAGUUUGGACUGGGCAGAGCUCAACACAGCGUGGCAAAGUGGCUGUGGCUAGACUGCCUCUCUGGAUUCCUCGUCACUCAGCAGGGCAUCUCUGAGGGAAAUGCC [U29C A30U A138G] | 0.55
UACGUAGGUGGUUUUCCCCUGAUAGUGCCGAGGGGGCCUGGAAGUUUGGACUGGGCAGAGCUCAACACAGCGUGGCAAAGUGGCUGUGGCUAGACUGCCUCUCUGGAUUCCUCGUCACUCAGCAGGGCAUCUCUGAGAGAGAUGCC [U29C A30G A141G] | 0.77
UACGUAGGUGGUUUUCCCCUGAUAGUGCAAAGGGGGCCUGGAAGUUUGGACUGGGCAGAGCUCAACACAGCGUGGCAAAGUGGCUGUGGCUAGACCGCCUCUCUGGAUUCCUCGUCACUCAGCAGGGGAUCUCUGAGAGAAAUGCA [U29A U96C C128G C146A] | 0.16
UACGUAGGUGGUUUUCCCCUGAUAGUGCAAAGGGGGCCUGGAAGUUUGGACUGGGCAGAGCUCAACACAGCGUGGCAAAGUGGCUGUGGCUAGACGGCCUCUCUGGAUUCCUCGUCACUCAGCAGGGCAUCUCUGAGAGAAAUACC [U29A U96G G144A] | 0.06
UACGUAGGUGGUUUUCCCCUGAUAGUGCCUAGGGGGCCUGGAAGUUUGGACUGGGCAGAGCUCAACACAGCGUGGCAAAGUGGCUGUGGCUAGACUGCCUCUCUGGAUUCCUCGUCACUCAGCAGGGCAUCUCCGAGAGAAAUGCC [U29C A30U U134C] | 2.45
UACGUAGGUGGUUUUCCCCUGAUAGUGCCAAGGGGGCCUGGGAGUUUGGACUGGGCAGAGCCCAACACAGCGUGGCAGAGUAGCUGUGGCUAGACCGCCUCUCAGGAUUCCUCGUCACUCAGCAGGGCAUCUCUGGGAGGAAUGCC [U29C A42G U62C A78G G82A U96C U104A A136G A140G] | 0
UACGUAGGUGGUUUUCCCCUGAUAGUGCCAAGGGGGCCUGGAAGUUUGGGCUGGGCAGAGCUCAACACAGCGUGGCAAAGUGGCUGUGGCUAGACUGCCUCUCUGGAUUCCUCGUCACUCAGCAGGGCAUCUCUGAGAGAGAUGCC [U29C A50G A141G] | 1.61

Source: the RNAGym collection of RNA variant scans (doi:10.7554/elife.90254)
